Reference: publication PMC10290086
These are yes or no findings as the source states them, for the method shown. Binding seen in cells or lysates may run through a third protein. Some results given as binding are weak or reduced against the parent protein; the word gives no strength.

Chains of the proteins cited; added tags and fusions are not shown. Residues count along the entry.
UniProt P52948, residues 1-880: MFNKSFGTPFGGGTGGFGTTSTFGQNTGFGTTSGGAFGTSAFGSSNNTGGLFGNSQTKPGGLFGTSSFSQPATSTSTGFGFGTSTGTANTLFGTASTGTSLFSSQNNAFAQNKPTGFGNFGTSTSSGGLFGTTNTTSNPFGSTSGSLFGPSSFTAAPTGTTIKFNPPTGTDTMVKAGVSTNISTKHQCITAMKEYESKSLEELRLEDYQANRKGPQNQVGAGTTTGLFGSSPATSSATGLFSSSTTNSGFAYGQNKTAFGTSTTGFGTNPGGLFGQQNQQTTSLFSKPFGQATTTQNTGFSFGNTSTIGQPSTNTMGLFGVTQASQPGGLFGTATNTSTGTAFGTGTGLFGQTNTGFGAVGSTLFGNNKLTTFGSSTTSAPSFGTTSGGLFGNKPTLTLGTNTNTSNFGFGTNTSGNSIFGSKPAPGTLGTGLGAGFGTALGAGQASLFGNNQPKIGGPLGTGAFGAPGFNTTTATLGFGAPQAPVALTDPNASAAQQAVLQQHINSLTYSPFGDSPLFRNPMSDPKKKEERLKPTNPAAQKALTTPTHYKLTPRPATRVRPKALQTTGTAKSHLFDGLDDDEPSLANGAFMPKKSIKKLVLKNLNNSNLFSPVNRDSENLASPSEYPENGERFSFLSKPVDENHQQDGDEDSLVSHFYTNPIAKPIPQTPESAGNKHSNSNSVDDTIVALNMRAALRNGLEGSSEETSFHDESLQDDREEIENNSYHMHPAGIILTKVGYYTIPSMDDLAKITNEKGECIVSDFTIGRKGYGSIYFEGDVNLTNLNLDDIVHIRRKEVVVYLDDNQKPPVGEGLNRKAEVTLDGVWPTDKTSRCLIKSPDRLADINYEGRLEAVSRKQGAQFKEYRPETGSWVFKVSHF

Biological target: NUP98 (human (endogenous in primary keratinocytes)) (UniProt P52948)
Assay: co-IP; nuclear extract of undifferentiated keratinocytes (50 mM Tris pH 8, 0.05% NP-40, 10% glycerol, 2 mM MgCl2, 250 mM NaCl); NUP98 or RAE1 antibody or mouse IgG control on protein G beads, overnight at 4 °C; also with or without RNase A (50 ug/mL, 20 min, 30 °C); blots for NUP98, RAE1, TPR and with mAb414

B1: RAE1 (protein, UniProt P78406 1-368)
chain: MSLFGTTSGFGTSGTSMFGSATTDNHNPMKDIEVTSSPDDSIGCLSFSPPTLPGNFLIAGSWANDVRCWEVQDSGQTIPKAQQMHTGPVLDVCWSDDGSKVFTASCDKTAKMWDLSSNQAIQIAQHDAPVKTIHWIKAPNYSCVMTGSWDKTLKFWDTRSSNPMMVLQLPERCYCADVIYPMAVVATAERGLIVYQLENQPSEFRRIESPLKHQHRCVAIFKDKQNKPTGFALGSIEGRVAIHYINPPNPAKDNFTFKCHRSNGTNTSAPQDIYAVNGIAFHPVHGTLATVGSDGRFSFWDKDARTKLKTSEQLDQPISACCFNHNGNIFAYASSYDWSKGHEFYNPQKKNYIFLRNAAEELKPRNKK
binding: binds
